# Results reported in PubChem BioAssay AID886 (National Center for Advancing Translational Sciences (NCATS), 2007).
# Screen size: about 73,000 compounds; about 2,500 (3.4%) were called active. Inconclusive results, whose numbers are uncertain, are shown with a selection of clear calls. The call rests on the fitted dose curve; in most records, active means well fitted inhibition curve with a large enough effect; inconclusive means small, poorly fitted or top-dose-only effect; inactive means no such curve, though single readings can be large or run the other way. Where the call is inconclusive, the potency comes from a doubtful curve fit.
# Target: 3-hydroxyacyl-CoA dehydrogenase type-2 (Homo sapiens) (UniProt Q99714)
# Sequence of UniProt Q99714 (Q99714 whole entry, looked up): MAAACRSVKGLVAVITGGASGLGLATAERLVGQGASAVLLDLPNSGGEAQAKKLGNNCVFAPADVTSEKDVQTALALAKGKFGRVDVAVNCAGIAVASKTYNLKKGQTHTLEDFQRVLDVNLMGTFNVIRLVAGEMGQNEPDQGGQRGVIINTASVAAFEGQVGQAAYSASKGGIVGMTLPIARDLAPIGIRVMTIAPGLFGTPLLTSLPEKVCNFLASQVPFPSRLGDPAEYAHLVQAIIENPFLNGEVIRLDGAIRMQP
# Sequence of UniProt Q99714 (Q99714 whole entry, looked up): as above
# Experiment: qHTS Assay for Inhibitors of HADH2 (Hydroxyacyl-Coenzyme A Dehydrogenase, Type II); further: nearly all actives have a fitted effect of over 60% in size
# Conditions: recombinant HADH2, NADH fluorescence, beta-hydroxybutyryl-CoA; activity change, negative = inhibition: at 57.1 µM (top of the series)
# Method in brief: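 His-tagged recombinant enzyme from E. coli, 20 nM, preincubated 15 min RT with compound; reaction started with 1 mM NAD+ and 90 uM beta-hydroxybutyryl-CoA in 100 mM Tris-HCl pH 9.0. NADH fluorescence (ex 360/em 450) read over 4 min; last-minus-first difference.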
# On the % scale 0 is the no-effect control and ±100 the full control effect; potency means the concentration at half of the fitted maximal effect; tags describe the fitted curve by direction and shape.
Structure (SMILES),Potency,"activity change, negative = inhibition"
Cc1ccc(C(=O)CSc2nnc(-c3ccco3)o2)o1,"inconclusive: 12.6 µM [inhibitor, partial curve]",–
CCOCC(=O)Nc1cc(-c2cn3cccnc3n2)ccc1C,active: 6.31 µM,–
CCOC(=O)c1ccccc1NC(=O)C1COc2ccccc2O1 (stereo not given),–,inactive: -10.6%
COc1ccc(/C=C\C(=O)Nc2ccccc2C(=O)O)cc1OC,"inconclusive: 12.6 µM [inhibitor, single point]",–
CCOC(=O)c1c(N)nn(C(=O)CC)c1-c1ccccc1,"inconclusive: 12.6 µM [inhibitor, partial curve]",–
CCN(CC)Cc1cc(CC(C(N)=O)C(N)=O)ccc1OC,–,inactive: -3.71%
c1ccc(CNc2ncnc3ccc(-c4ccc5c(c4)OCO5)cc23)cc1,"inconclusive: 31.6 µM [inhibitor, single point]",–
Cc1cc2sc(C)[n+](CCCOS(=O)(=O)O)c2cc1C,"inconclusive: 0.794 µM [inhibitor, full curve]",–
CCOC(=O)c1c(-c2cccs2)csc1NC(=O)CSc1ncn[nH]1,active: 12.6 µM,–
Cc1cccc(CNc2nc(-c3cccnc3)nc3ccccc23)c1,"inconclusive: 31.6 µM [inhibitor, single point]",–
Nc1ccc2oc(-c3cccc(Br)c3)nc2c1,"inconclusive: 39.8 µM [inhibitor, single point]",–
COc1ccc(N2CCn3c2nc2c3c(=O)n(CCCc3ccccc3)c(=O)n2C)cc1,–,inactive: 5.1%
Cc1cccn2cc(CCNS(=O)(=O)c3ccc4c(c3)OCCO4)nc12,"inconclusive: 1.58 µM [inhibitor, full curve]",–
O=C(CSc1ccc2nnc(-c3cccc(F)c3)n2n1)NCC1CCCO1 (stereo not given),active: 20 µM,–
CCN1CCN(C(=O)Nc2cccc3ccccc23)CC1,"inconclusive: 6.31 µM [inhibitor, full curve, poor fit]",–
C=CCn1c(Cc2c[nH]c3ccccc23)n[nH]c1=S,"inconclusive: 31.6 µM [inhibitor, single point]",–
Cc1ccc(-c2cc(C(=O)NC3=NCCS3)c3cc(Br)ccc3n2)o1,active: 25.1 µM,–
CCOC(=O)c1cc2cc(-c3c(C(=O)OCC)oc4cc(O)cc(O)c4c3=O)ccc2o1,"inconclusive: 39.8 µM [inhibitor, single point]",–
CCC(C)NCC(=O)Nc1ccc(-c2nc3cc(NC(=O)CNC(C)CC)ccc3o2)cc1 (stereo not given),"inconclusive: 0.794 µM [inhibitor, single point]",–
N#Cc1ccccc1-c1ccc2ncnc(NCc3cccs3)c2c1,"inconclusive: 39.8 µM [inhibitor, single point]",–
